We go through 87 compounds from PubChem BioAssay (NCI).

Values joined by “and” are separate entries in the source; they are usually repeats but may differ in a detail not shown here. Equal entries are not always repeated.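 Assay format: 96-well plates, 48-hour exposure. GI50 is the concentration that inhibits growth by half. TGI denotes the concentration required for complete inhibition of growth.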 Where only a bound is given, the exact number is not on record here.

For the assay, the system named is NCI-H322M lung. The experiment in a line: DTP human tumour cell line panel, 48 h.
`Cc1ccnc(NC(=S)Nc2ccc([N+](=O)[O-])cc2)c1`: the TGI is above 100 µM.

In the case of `COc1ccc(Cl)cc1NC(=O)c1ccc(NC2=C(Cl)C(=O)N(Cc3ccccc3)C2=O)cc1`, the GI50 is above 100 µM and the concentration for total growth inhibition (TGI) is above 100 µM.

With `CCOC(=O)Nc1c(C)nc2ccccn12`, the GI50 was above 100 µM and the TGI was above 100 µM. `Clc1sc(Cl)c2c1[C@@H](Cl)C[C@@H]2Br` yielded a TGI above 100 µM. Take `CC(C)C1=CC23CCC4C(C)(C(=O)O)CCCC4(C)C2CC1C1C(=O)N(CCCCCCN2C(=O)C4C5CC6C7(C)CCCC(C)(C(=O)O)C7CCC6(C=C5C(C)C)C4C2=O)C(=O)C13` (stereo unspecified): the TGI was 22.4 µM. On the same count and under the same terms, the figure for `COC1OC2COC(c3ccccc3)OC2C(O)C1OC(=S)c1ccccc1` (stereo unspecified) is above 100 µM; for `CC1(C)C=CC(=O)C(O)C(C)(C)C1=O` (stereo unspecified) it is above 100 µM; for `CSC[C@H](NC(=O)COc1cccc2cnccc12)C(=O)NC(Cc1ccccc1)C(O)C(=O)N1CSC[C@H]1C(=O)NC(C)(C)C` (stereo partly specified) it is above 100 µM. On to `COc1nc(=O)n(C2C=CC(=O)O2)cc1F` (stereo unspecified), for which the GI50 is 16.7 µM and the TGI amounted to 60 µM. For `COc1ccc(CC(N)=O)cc1OC`, the TGI was above 1250 µM. Same read-out and setting: next, `CC1OC(O[C@H]2C3C=CO[C@@H](OC4OC(CO)C(O)C(O)C4O)C3[C@@]3(COC(=O)/C=C/c4ccccc4)O[C@@H]23)C(O)C(O)C1O` (stereo partly specified): above 100 µM. Take `NC(=S)N/N=C/c1ncccc1O`: the GI50 was 4.87 µM. On to `C=CC12CCN(CC1)C(C(O)c1ccnc3ccc(OC)cc13)C2` (stereo unspecified), for which the GI50 was above 100 µM and the TGI was above 100 µM.

The compound `COC(=O)c1c(C)cc(OC)c(C/C=C(\C)CCCc2coc(C=C(C)C)c2)c1OC` returned a TGI above 100 µM. Consider `CCN(CCNS(C)(=O)=O)c1ccc(N)c(C)c1`, for which the GI50 is 35.1 µM and the TGI was above 100 µM. In the same order, the values of `COc1ccc(CNc2c3ccccc3nc3ccccc23)cc1F` are 3.22 µM and 12 µM.

`O=C(NN1C(=O)CS(=O)(=O)C1c1ccc(C(F)(F)F)cc1)c1ccncc1` (stereo unspecified) registered a TGI above 100 µM. The same measure, in the same setting: next, `Nc1ncc2c(n1)-c1ccccc1OC2N1CCCC1` (stereo unspecified): above 100 µM; `Cc1cc(OP2(=O)NCc3ncccc3O2)ccc1Cl` (stereo unspecified): above 100 µM; `C=CC1(C)CC(=O)C2(O)C(C)(O1)C(OC(C)=O)C(O)C1C(C)(C)CCC(O)C12C` (stereo unspecified): above 112 µM. With `OC(C#CCN1CCCC1)(c1ccccc1)c1ccccc1Cl` (stereo unspecified), the TGI is above 100 µM.

Turning to `COc1ccc(-c2cc(=O)oc3c4c(ccc23)OCN(Cc2ccc(F)cc2)C4)cc1`, the GI50 is 20.5 µM and the TGI was found to be 57 µM.

`CCCN(CCC)c1c([N+](=O)[O-])cc(C(=O)N(CC)CC)cc1[N+](=O)[O-]` returned a TGI above 100 µM. The same measure, in the same setting: next, `C=C(C)CNCCN`: above 100 µM; `CCOC(=O)CNC(=O)NC12CC3CC(CC(C3)C1)C2`: above 550 µM; `O=c1onc2n1-c1cc(Cl)ccc1C(=S)N1CSCC21` (stereo unspecified): above 100 µM.

`COC(=N)c1csc(C2OC(CO)C(O)C2O)n1` (stereo unspecified) returned a TGI above 100 µM. On the same count and under the same terms, next, `O=C(O)c1ccc(CNCc2ccccc2)cc1`: above 100 µM; `Cc1ccc2c(c1)c1ccc3c(c1n2C)C(=O)C=CC3=O`: above 10 µM.

`CNc1cc2oc(=O)cc(C)c2cc1C`: the TGI is above 100 µM. Consider `CC(C)=CCC1=C(O)c2ccccc2C(=O)C1=O`, for which the GI50 is > 100 µM and 30.4 µM and 20.1 µM; the TGI was above 100 µM. Regarding `COC(=O)c1ccccc1CC1Cc2cccc(C)c2C1=O` (stereo unspecified), the TGI is above 100 µM.

Take `COc1cc(Nc2ccc3c(c2)CCC3)nc(OC)n1`: the TGI was above 100 µM. `CC(C)(C)OC(=O)NC(CSSCC(NC(=O)OC(C)(C)C)C(=O)O)C(=O)O` (stereo unspecified) displayed a TGI above 100 µM. On the same count and under the same terms, the figure for `C/C1=C\[C@H](C)C[C@H](C)OC(=O)[C@H](C)NC(=O)[C@@H](Cc2ccc(O)c(Br)c2)N(C)C(=O)[C@H](C)NC(=O)[C@@H](C)C1` is above 22.9 µM; for `c1ccc(C2=NOC(c3ccccc3)N2C23CC4CC(CC(C4)C2)C3)cc1` (stereo unspecified) it is above 10 µM.

Take `C=C(C)[C@@H]1CC[C@]2(CN)CC[C@]3(C)[C@H](CC[C@@H]4[C@@]5(C)CCCNC(C)(C)[C@@H]5CC[C@]43C)[C@@H]12`: the GI50 is 1.61 µM and the TGI is 3.15 µM. For the compound `Cc1nc2ccccc2c(-n2cccn2)c1CCn1cccn1`, the TGI was above 100 µM. For the compound `Cc1ccsc1/C=N/Nc1cnccn1`, the TGI is above 100 µM.

As to `CCn1cc(-c2ccnc3[nH]c(-c4cccc(CN(C)C)c4)cc23)c(-c2ccc(NC(=O)N(C)C)cc2)n1`, the GI50 was 8.19 µM and 4.37 µM; the TGI was 23.4 µM and > 10 µM. As to `O[C@H]1[C@H](O)[C@@H](O)CN2CC[C@H](O)[C@H]12`, the TGI was above 100 µM. Still for that read-out and setting: next, `O=C(NCCCl)O/N=C/c1cccnc1`: above 100 µM; `O=C1C=C(c2c(O)ccc3ccccc23)c2cc(O)ccc2C1=O`: 33.1 µM. Still for that read-out and setting: next, `CC12c3ccccc3C(OC=O)(c3ccccc31)C1(C)c3ccccc3C2(OC=O)c2ccccc21`: above 100 µM. Regarding `O=c1[nH]c(-c2cccc(F)c2)cc2cc(F)ccc12`, the GI50 is 4.35 µM and the TGI is above 100 µM. `CCOc1c(OC)cc(-c2nc3n(n2)C(=O)C(CC)S3)cc1OC` (stereo unspecified) returned a TGI above 10 µM. `Cc1cccc(NC2=C(Cl)C(=O)c3nc(C)ccc3C2=O)c1`: the GI50 is 2.32 µM and the TGI was determined as 7.37 µM. On to `O=c1[nH]c(=O)n(C2CC(O)C(CO)O2)cc1OS(=O)(=O)C(F)(F)F` (stereo unspecified), for which the TGI was above 100 µM. In turn, `CN1CCN(Cc2cc3c(nn2)-c2ccccc2C3=O)CC1` displayed a TGI above 100 µM. The same measure, in the same setting: the figure for `O=C(O)C(O)C(O)C(O)C(O)CO` (stereo unspecified) is above 100 µM. Still for that read-out and setting: next, `CC(C)C1CN(C(=O)OCc2ccccc2)C2N1C(=O)C2(C)OCc1ccccc1` (stereo unspecified): above 100 µM; `O=C1c2cccc3cccc(c23)C(=O)N1CCN(CCO)CCO`: 74.3 µM; `COc1cc(OC)c(OC)cc1/C=N/NC(=O)N/N=C/c1cc(OC)c(OC)cc1OC`: above 100 µM.

`CC(C(=O)COCc1ccccc1)P1(=O)OC(C)(C)CN1C(C)(C)C` (stereo unspecified) yielded a TGI above 100 µM. The same measure, in the same setting: next, `CCC(C)(C)n1c(C)nc2c1C(=O)c1ccccc1C2=O`: above 100 µM; `O=C1N(Cc2ccccc2)C2CSCC2N1Cc1ccccc1` (stereo unspecified): above 100 µM. Compound `CC(C)(C)c1ccc2c(c1)C#Cc1cc3c(cc1OCCCO2)C#Cc1cc(C(C)(C)C)ccc1OCCCO3` gave a TGI above 100 µM. In the case of `c1ccc(C(C(=Nc2ccc(Cc3ccc(N=C(C(c4ccccc4)c4ccccc4)N4CC4)cc3)cc2)N2CC2)c2ccccc2)cc1`, the TGI was 47.5 µM. For `CCc1n[nH]c(=O)n1-c1ccc2ccccc2c1`, the TGI is above 100 µM. `CN(C)Cc1cc(C(=O)/C=C/c2ccc([N+](=O)[O-])cc2)cc(CN(C)C)c1O` showed a TGI of 15.9 µM. On the same count and under the same terms, the figure for `CCCCCCCCc1cc2c(O)c(c1)Cc1cc(CCCCCCCC)cc(c1O)Cc1cc(CCCCCCCC)cc(c1O)Cc1cc(CCCCCCCC)cc(c1O)Cc1cc(CCCCCCCC)cc(c1O)Cc1cc(CCCCCCCC)cc(c1O)C2` is above 100 µM; for `CCOC(=O)c1c2cccccc-2nc1Nc1cccc2c(C)ccnc12` it is above 10 µM; for `CCCCCCCC(=O)OCC1OC(n2cc(F)c(=O)[nH]c2=O)C(N)C(OC(=O)CCCCCCC)C1O` (stereo unspecified) it is 33.2 µM. With `COC(=O)/C=C/c1cc(OC(C)=O)c2c(c1)C(C(=O)OC)C(c1ccc(OC(C)=O)c(OC(C)=O)c1)O2` (stereo unspecified), the GI50 was 7.07 µM and the TGI was determined as 51.1 µM. For the compound `C[C@H](CCOc1cccc(CC(=O)O)c1)N(Cc1cccc(C(F)(F)F)c1Cl)CC(c1ccccc1)c1ccccc1`, the GI50 is 6.72 µM and the TGI came to 19.6 µM. The compound `CCOC(=O)Cc1csc(Nc2ccccc2[N+](=O)[O-])n1` yielded a TGI above 100 µM. Regarding `C=C1C(=O)[C@@]23CC[C@@H]4[C@@]5(C)CCC[C@@]4(OC5=O)[C@@]2(C)CC[C@@H]1C3`, the TGI is 17.2 µM. Same read-out and setting: next, `C/C(=N\NC(N)=O)c1sc(-c2nc(C)c(/C(C)=N/NC(N)=O)s2)nc1C`: above 100 µM; `O=C1c2cccc3cccc(c23)C(=O)N1CCCNCCCCNCCCNCCCN1C(=O)c2cccc3cccc(c23)C1=O`: 1.56 µM.

As to `CC1=C(C#N)c2nc3ccccc3n2C(=O)C1(C)CCO` (stereo unspecified), the TGI was above 100 µM.

`CCOC(=O)C(Br)=C1OC(=O)c2ccccc2-c2ccccc21` (mixture of isomers) gave a TGI of 50.3 µM. For the compound `COc1cc2c(cc1OCCCN1C(=O)c3cccc4cccc(c34)C1=O)N=C[C@@H]1CCCN1C2=O`, the TGI is above 100 µM.

With `CCOC(=O)/C=C1/C(CCCOCc2ccccc2)C2CCCC23CC2(CCN13)OCCO2` (stereo unspecified), the TGI was above 100 µM. Take `COc1cc(C[P+](c2ccccc2)(c2ccccc2)c2ccccc2)cc(OC)c1OC`: the TGI was above 100 µM. For the compound `Cc1nc2c(Br)cc(Br)cc2c(=O)n1-c1nnc(-c2cccc(Cl)c2Cl)c(N)n1`, the GI50 is 14.7 µM and the TGI turned out to be 41.7 µM.

For the compound `O=C(CNc1ccc(Cl)cc1Cl)Nn1c(-c2ccccc2)nc2ccccc2c1=O`, the TGI was 29.1 µM. The same measure, in the same setting: next, `CN1Nc2ccccc2CC1=O`: above 100 µM. Still for that read-out and setting: the figure for `COc1ccc(/C=C\c2cc(OC)c(OC)c(OC)c2)cc1OCC(=O)O` is above 100 µM. As to `COc1cccc2c1O/C(=C\c1ccc([N+](=O)[O-])s1)C2=O`, the GI50 was above 100 µM and the TGI was above 100 µM. As to `[N-]=[N+]=NC1(c2ccccc2)C(=O)c2cccc3c2N(CCC3)C1=O` (stereo unspecified), the TGI is above 100 µM. In the case of `O=c1[nH]c(O)c(C=Nc2ccc(-c3nc4ccccc4o3)cc2)c(=O)[nH]1`, the GI50 is 57.2 µM and the TGI was above 100 µM.

Take `C[C@@H]1CC[C@H]2[C@H]1[C@H]1[C@@H](CC[C@]2(C)N=C=S)C1(C)C`: the TGI is above 100 µM. In the case of `NCCCn1c2c(c3ccc([N+](=O)[O-])cc3c1=O)C(=O)c1cc(I)ccc1-2`, the GI50 was 0.709 µM and the TGI was found to be 2.29 µM. On to `O=[N+]([O-])c1ccccc1N=Nc1c(O)[nH]c2c(Cl)cc(Cl)cc12`, for which the TGI was above 100 µM. The compound `Cn1ncc2c(NCc3ccccc3)ncnc21` had a concentration for total growth inhibition (TGI) above 100 µM.

Regarding `CCN(Cc1c(F)cccc1OC)c1ccc(CO)c(Cl)c1`, the GI50 is 3.81 µM and the TGI is 22.1 µM. In the case of `Cc1cc(C[C@H]2O[C@@H]3OC(C)(C)O[C@@H]3[C@H]3OC(C)(C)O[C@H]32)c2ccccc2n1`, the TGI was above 100 µM.
